Assay results reported in the supplement of paper PMC10338343.
± gives the standard deviation. Only a part is listed here, and it is no random draw.

The sequences below were run on MIWI (PIWIL1) piRISC loaded with piRNA #1 (30 nt) (assay: pre-steady-state target cleavage rate (min^-1); MIWI and MILI are mouse PIWI proteins and EfPiwi is from a freshwater sponge; tags in brackets are library labels; higher = faster piRNA-guided slicing of the target). Details: guide: piRNA #1 5'p-UGAGGUAGUAGGUUGUAUAGUAUCCAGAGG; auxiliary factor: 500 nM mouse GTSF1.
Outline: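 Cleave-'n-Seq reactions paired 0.1 nM transcribed, DNA-blocked target RNA library with 1 nM active affinity-purified piRISC holding one synthetic guide, plus or minus 500 nM GTSF1 partner protein, in HEPES–potassium acetate buffer at 33 °C for 0–8 or 0–960 min. After sequencing of uncleaved targets and normalisation to depth and weakly complementary targets, the pre-steady-state cleavage rate was taken from a burst-and-steady-state fit. Three trials were pooled, and k3 was capped at 0.0001 min^-1.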

First: GGACUGGAUACUAUACAAGGUACUACCUCA
Second: CCUCUGGAUACUAUACAAGCAACUACCUCA
The “pre-steady-state target cleavage rate” value of the first is higher: 0.331 ± 0.036 for the first, 0.0413 ± 0.0084 for the second.

Compared with CCUCAGGAUACUAUACAACCUACUUCCUCA, GGAGUGGAUAGUAUACAACCAACUACCUCA is lower in “pre-steady-state target cleavage rate” value: 0.797 ± 0.052 for the first, 0.0884 ± 0.009 for the second.

Going from CCUCUGGAUACUAUAGCAACCUACUACCUCA to GGACUGGAUACUAUAGAUCCUACUACCUCA, the “pre-steady-state target cleavage rate” value falls from 1.35 ± 0.11 to 1.16 ± 0.078.

Going from GGAGACCUAACUAUACAACCUAUUACCUCA to GGAGAGGAUACUAUACAACCAUCUACCUCA, the “pre-steady-state target cleavage rate” value falls from 0.598 ± 0.052 to 0.0493 ± 0.01.

Going from GCUCUGGAUACUAUACAAUCCUACUACCUCA to GCUCUGGAUACUAUAGAACCUACUACGUCA, the “pre-steady-state target cleavage rate” value rises from 0.00658 ± 0.0041 to 0.53 ± 0.059.

GGAGACGAAUCUAUACAACCUACUACCUCA and GGAGACCAUACUAUACAACCUACUAGCCUCA are within error of each other in “pre-steady-state target cleavage rate” value: 1 ± 0.075 for the first, 0.898 ± 0.071 for the second.

Going from GGAGAGGAUAGUAUACAUCCUACUACCUCA to GGAGACCAUACUAUACAACCUACUCCUCA, the “pre-steady-state target cleavage rate” value falls from 0.182 ± 0.027 to 0.00356 ± 0.0031.

Going from GGUCUCGAUACUAUACAACCUACUACGUCA to GGACUGGAUUCUAUACAACCUACAACCUCA, the “pre-steady-state target cleavage rate” value falls from 0.675 ± 0.062 to 0.447 ± 0.059.

First: GGAGACGAUACUAUACAACCAAGUACCUCA
Second: GGAGACCUAUGUAUAGAACCUACUACCUCA
The “pre-steady-state target cleavage rate” value of the first is lower: 0.0472 ± 0.0085 for the first, 0.126 ± 0.019 for the second.

Going from GGAGUGGAUACUAUACAACCAACUUCCUCA to GCUCUCGAAACUAUACAACCUACUACCUCA, the “pre-steady-state target cleavage rate” value rises from 0.0088 ± 0.0024 to 1.75 ± 0.12.

First: GGAGUGGAUACUAAACAACCAACUACCUCA
Second: GGACUGGAUACUAUACUACCUACUUCCUCA
The “pre-steady-state target cleavage rate” value of the first is higher: 0.1 ± 0.011 for the first, 0.0485 ± 0.0093 for the second.

Going from GGACUGGAUACUAUACAACCUACUUGCUCA to GCUCAGGAUACUAUACAACCUACUACCACA, the “pre-steady-state target cleavage rate” value rises from 0.00305 ± 0.0025 to 1.75 ± 0.1.

Compared with GGAGACCAUACUAUACAACCUACUACCUCCA, GCUCUGGAUACUAUACAACCAACAACCUCA is lower in “pre-steady-state target cleavage rate” value: 1.14 ± 0.065 for the first, 0.0818 ± 0.013 for the second.

First: GGAGACCUUACUAUACAACUUACUACCUCA
Second: GGAGACGAAACUAUACAACCUACUACCACA
The “pre-steady-state target cleavage rate” value of the first is lower: 0.504 ± 0.029 for the first, 0.989 ± 0.083 for the second.

GGUCUGGAUAGAAUACAACCUACUACCUCA and GGAGUGCAUACUAUACAUCCUACUACCUCA are within error of each other in “pre-steady-state target cleavage rate” value: 1.39 ± 0.097 for the first, 1.51 ± 0.1 for the second.

First: GGAGACCUAACUAUACUACCUACUUCCUCA
Second: GGAGACGAUUCUAUACAACCUACUAGCUCA
The “pre-steady-state target cleavage rate” value of the first is lower: 0.00433 ± 0.0034 for the first, 0.636 ± 0.053 for the second.

First: GGAGACGAUACUCUACAACCUACUACCUCA
Second: CCACUGGAAACUAUACAACCUACUACCUCA
The “pre-steady-state target cleavage rate” value of the first is lower: 1.53 ± 0.094 for the first, 2.06 ± 0.11 for the second.

GGAGUGCAUACUAUACAACCUACUAGCUCA and GGAGAGGAUACUAUACAACCUACUCCCUCA are within error of each other in “pre-steady-state target cleavage rate” value: 0.162 ± 0.026 for the first, 0.174 ± 0.02 for the second.

Going from GGAGACCUUACUAUACUACCUUCUACCUCA to GCUGUGGAUACUAUACAACCUUCUACCUCA, the “pre-steady-state target cleavage rate” value rises from 0.0539 ± 0.0082 to 0.725 ± 0.039.

Compared with CCUCUGGAUACUAUACACACCUACUACCUCA, GGACUGGAUACAAUACAACCUACUUCCUCA is higher in “pre-steady-state target cleavage rate” value: 0.0121 ± 0.006 for the first, 0.0269 ± 0.006 for the second.
